ChEMBL document CHEMBL4888484, “Replenishing the malaria drug discovery pipeline: Screening and hit evaluation of the MMV Hit Generation Library 1 (HGL1) against asexual blood stage Plasmodium falciparum ,using a nano luciferase reporter read-out” (2022)
In all, about 150,000 compounds went through this assay and about 540 (0.36%) showed an effect of 50% or more. The list shows a part of the results.

Test system: Plasmodium falciparum
Assay: Primary screen in NF54 nanoGlo assay, in single point, at 2uM, 72h; a lower Z score goes with more inhibition
Assay type: functional, Erythrocyte
Conditions: timepoint 72 hour

SMILES | % Inhibition [%] | Z score
COCCNC(=O)C1CN(S(=O)(=O)c2ccccc2)CC1c1cccc(OC)c1OC (centres undefined) | -6 | 0.65
CCN(C)C(=O)CCc1n[nH]c(-c2ccc(OCc3cccc(F)c3)cc2)nc1=O | 5 | -0.64
Cc1noc(C)c1CS(=O)(=O)[C@@H](C)C(=O)NCc1ccccc1 | 14 | -1.28
O=C(c1ccc(=O)[nH]c1)N1C[C@@H]2CC[C@H]1CN(Cc1ccccn1)C2 | -7 | 1.5
CCN1CCN(c2c(CN(C(=O)NC3CCCCC3)C3CC3)c(C)nn2-c2ccccc2)CC1 | -14 | 1.49
O=C(Nc1cccc(Cl)c1)NC1(CO)COC(c2ccc(N3CCOCC3)cc2)OC1 (centres undefined) | 24 | -2.77
Cc1ccc(-c2n[nH]c(NC(=O)c3c(F)cccc3Cl)c2C)o1 | 18 | -1.96
COC[C@@H](O)CNC(=O)N[C@@H]1C[C@H]1c1ccc(Cl)cc1Cl | -8 | 0.77
CCN(CC)Cc1cnc2c(C(=O)N3CCCCC34CC4)cnn2c1 | -13 | 1.9
O=C(c1ccc(-c2nccs2)cc1)N1CCCC2(CCOCC2)C1 | 6 | -1.15
C=CCC1(CC=C)CCCCN1Cc1nccn1C | -2 | 0.43
Cn1cnnc1N1CCN(C(=O)NC[C@]2(C)C[C@H]2c2ccccc2)CC1 | -9 | 1.79
Cc1ccccc1[C@H](Cn1cnc2cccnc2c1=O)N(C)C | -9 | 1.55
Cc1cc(NCc2cccnc2N(C)CCc2ccccn2)nc2ccccc12 | 1 | -0.13
CC1(C#N)CN(C(=O)Nc2ccc(C3CCC3)cn2)C1 | -6 | 0.57
Cc1[nH]c2nc(C(=O)N3CCCC3)nn2c(=O)c1Cc1ccccc1 | 5 | -0.62
Cn1cc(C(=O)NC2C3CC2N(c2nccc(Oc4ccccc4)n2)C3)nn1 (centres undefined) | -8 | 1.25
CC1CCN(CCNc2ncnc3onc(-c4cc(F)cc(F)c4)c23)CC1 | -6 | 0.91
COCc1cccc(CNc2ncnc3onc(C)c23)c1 | 4 | -0.44
Cc1nccn1CCN(C)Cc1ccc(-n2ccnc2)cc1 | -3 | 0.51
COc1ccc(C)cc1NC(=O)c1cn(-c2ccc(-c3noc(C4CC4)n3)cc2)nc1C | 4 | -0.8
COc1cc2c(cc1OC)CN(C(=O)c1ccc(CN3C(=O)CNC3=O)cc1)CC2 | -6 | 0.66
Cn1c(=O)[nH]cc(C(=O)Nc2ccc3c(c2)OCCO3)c1=O | 4 | -0.54
C[C@@H](C(=O)NCc1cccnc1N1CCOCC1)n1ccnc1 | -5 | 0.77
O=C(CCCc1c[nH]c2ccccc12)N1CCC[C@H]1c1ccc2c(c1)OCCCO2 | -2 | 0.3
Cc1ccccc1NC(=O)c1ncn2c1C(=O)N(C1CC1)[C@](C)(C(=O)NCc1ccc(F)cc1)C2 | -8 | 0.83

SMILES | % Inhibition [%] | Z score
Cn1cc(-c2ccc3c(c2)OCC[C@@H]2CC[C@H](O)[C@@H](CNC(=O)[C@@H]4CN(Cc5cccc(Cl)c5)CCN4C3=O)O2)cn1 | 10 | -1.88
Cc1ccc(C(=O)Cn2cnc3c2c(=O)n(CCC(C)C)c(=O)n3-c2ccc(F)cc2)c(C)c1 | -11 | 1.7
Cc1cc(=O)[nH]c(-n2nc(C3CC3)cc2NC(=O)C(C)(C)Oc2ccc(Cl)cc2)n1 | 84 | -15.44
CC1CN(C)CCN1C(=O)C(C)n1cncn1 (centres undefined) | 0 | 0.06
COC[C@H]1CCCN1S(=O)(=O)NCc1nc2ccccc2o1 | -15 | 2.05
C=CCN(C(=O)CCN1CCCCO1)C1CCCC1 | 15 | -1.95
COc1ncccc1C(=O)N1CCC[C@]1(C)Cc1cccc(F)c1 | -2 | 0.25
Cc1cc(C(=O)NCCn2c(C)cnc2C2CC2)n(C)n1 | -11 | 1.42
O=C(Nc1cccc(C#Cc2ccccn2)c1)[C@H]1CCS(=O)(=O)C1 | 5 | -0.69
CN(C[C@H]1CCCOC1)C(=O)Nc1csnc1-c1ccccc1 | -10 | 1.94
COc1cccc(CN2CCn3nnc(-c4nc(-c5ccccc5)no4)c3C2=O)c1 | -5 | 0.53
CCC(C)C(=O)Nc1nc2c(s1)C(=O)CC(C(=O)N1CCN(c3cccc(Cl)c3)CC1)C2 (centres undefined) | -7 | 1.06
CS(=O)(=O)NC(=O)[C@@]12CCC[C@@H]1CN(Cc1ccccc1)C2 | -10 | 1.28
Cc1cnc(COc2cccc3c2[C@@H](O)CC(C)(C)O3)s1 | -12 | 1.91
Cc1ccnc(Oc2cccc(C(=O)Nc3ccccc3)c2)n1 | -36 | 3.16
CC(=O)C(Nc1cc(C(F)(F)F)ccc1Cl)C(C)=O | -10 | 1.32
Cc1cc(C(=O)NC2CCC(F)C2)c(C)o1 (centres undefined) | -8 | 1.62
O=C(C1CCN(Cc2cccc3cccnc23)CC1)N1CCCC1 | -5 | 0.69
C[C@@H](Oc1ccc(Cl)cc1Cl)C(=O)N[C@H]1CCC[C@H]1C(=O)O | -1 | 0.08
COCCN(CC(N)=O)Cc1csc2c(F)cccc12 | 6 | -0.86
C#Cc1cccc(N(C)C(=O)CS(=O)(=O)N(CC)CC)c1 | -8 | 0.9
Cc1ccc(S(=O)(=O)c2ccc(C(=O)NCc3ccc4c(c3)OCO4)s2)cc1 | -19 | 1.77
COC1CCC(N[C@H]2CCCN(C(=O)OC(C)(C)C)C2)CC1 (some centres undefined) | -15 | 1.5
O=C(c1ccccn1)N1C[C@H](c2nc(-c3ccccc3)no2)C2(CCOCC2)C1 | 8 | -1.58
O=C(c1ccc(F)c(Cl)c1)N1CCCN(c2cc(-c3ccccc3)n[nH]2)CC1 | -17 | 1.72
CC[C@]1(N2CCN(S(=O)(=O)c3ccc4c(c3)CCCC4)CC2)CCN(C(=O)NC)C1 | -12 | 1.2
